The densities may have been worked out from excess volumes.
Experiment: xn = mol fraction of the nth substance listed
Settings: 100 kPa, x1 = 0.333

Row | SMILES | mass density (298.15 K) | mass density (313.15 K) | mass density (323.15 K) | mass density (333.15 K) | mass density (303.15 K)
1 | CCn1cc[nH+]c1.[Cl-] + OCC(O)CO | 1150 kg/m3 | 1142 kg/m3 | 1136 kg/m3 | 1130 kg/m3 | 
2 | CC[n+]1ccn(C)c1.[Cl-] + OCC(O)CO | 1150 kg/m3 | 1146 kg/m3 | 1144 kg/m3 | 1140 kg/m3 | 
3 | Cn1cc[nH+]c1.[Cl-] + OCC(O)CO |  |  | 1183 kg/m3 |  | 1194 kg/m3

From a compilation of properties of binary mixtures (doi:10.1016/j.molliq.2022.119052)
